From the supplement of paper PMC10126150
Values marked as one replicate rest on one cluster of the flow cell; about a third of the high ones do not repeat.

Test system: ATP
Assay: switch fluorescence ratio, 500 uM ATP over buffer (Cy3 cluster intensity, sum of 5 cycles each) (fold (ratio)); higher = stronger signal-on switching upon ATP binding; sequences stand for … in TCGTCGGCAGCGTCAGATGTGTATAAGAGACAGTTTTTTTTTTTTTTTTTTTTTTTTT…TC
Details: aptamer strand: ATP DNA aptamer (quencher-CACCTGGGGGAGTATTGCGGAGGAAGG + anchor), 100 nM annealed; ATP concentration: 500 uM; one replicate
Outline: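 Values give the fluorescence ratio for each switch-domain sequence, averaged from per-cluster ratios of summed target-cycle to summed buffer-cycle Cy3 intensity. The Cy3-labelled switching-strand clusters sat on a modified Illumina MiSeq flow-cell, were annealed to 100 nM quencher-labelled ATP aptamer, and were imaged in selection buffer, then after 15 min with 500 uM ATP at 22 °C. Five cycles ran with NaOH stripping and re-annealing between them, and clusters outside 100-1000 RFU were excluded.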
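Further: ATP exposure 15 min at 22 °C before imaging.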

Sequence	switch fluorescence ratio
TTGAGAAGAA	1
TTGAGAAGCG	0.985
TTGAGAATAT	1.01
TTGAGAC	0.982
TTGAGAGGCG	1.05
TTGAGAGGTG	1.1
TTGAGATGTA	0.984
TTGAGGAAAA	0.992
TTGAGGGTAC	1.08
TTGAGGGTC	0.954
TTGAGGTCCA	0.997
TTGAGTAGCG	0.978
TTGAGTCGAT	1.01
TTGAGTTTCA	0.976
TTGATCGACG	1.02
TTGATCT	1.03
TTGATCTTCT	0.968
TTGATGTGGC	1.03
TTGATTAAC	0.955
TTGATTATGA	1.02
TTGATTCACA	1.02
TTGATTTGCG	0.997
TTGCAAATGT	0.996
TTGCAAGGAA	1.15
TTGCAATCGC	1.5
TTGCAATTGT	1.01

Sequence	switch fluorescence ratio
TTGCACGGGG	1.03
TTGCACTCCC	2.26
TTGCACTTAA	1.13
TTGCAGCGTT	0.985
TTGCAGGGCT	1.03
TTGCAGTCG	1
TTGCATAGAA	0.997
TTGCATTTAC	1.83
TTGCATTTTA	0.943
TTGCCAAAT	0.966
TTGCCACGCA	1.03
TTGCCCGAAT	1.02
TTGCCCGTGT	0.957
TTGCCGGGCC	1.03
TTGCCGTGAC	1.01
TTGCCGTTTT	1.14
TTGCCTAGAA	0.996
TTGCCTGGTT	1.03
TTGCCTGTTA	1.03
TTGCGAAGAG	1.06
TTGCGACTCG	0.989
TTGCGATGCT	1.24
TTGCGATTGC	1.1
TTGCGCAGTT	1.03
TTGCGCCGGA	0.96
TTGCGGTCCT	1.02

Sequence	switch fluorescence ratio
TTGCTAACGC	1.04
TTGCTACAAG	1.02
TTGCTAGTAC	1.24
TTGCTCGGAT	0.994
TTGCTGATCA	0.988
TTGCTGATTA	0.984
TTGCTGGCTT	1.03
TTGCTGGGCA	0.985
TTGCTTCCAT	1.03
TTGCTTCTT	1.01
TTGCTTGACA	1
TTGGAAAGGA	0.981
TTGGAACTAT	1.05
TTGGAATGGC	0.969
TTGGACAGCT	1.01
TTGGACGAAT	0.989
TTGGACTCAT	0.999
TTGGAGAAGC	0.952
TTGGAGACTT	0.981
TTGGAGGGCA	0.972
TTGGAGGTTG	0.976
TTGGATAAGC	1.02
TTGGATAGAT	0.974
TTGGATAGT	1.04
TTGGATGTAT	1
TTGGCAAAAA	1.02

Sequence	switch fluorescence ratio
TTGGCATCAG	1.04
TTGGCCATTT	1.04
TTGGCCCATA	0.966
TTGGCCCCCC	1.01
TTGGCTCGAG	1.09
TTGGCTCTAG	1.03
TTGGCTTCGT	0.983
TTGGGACCAG	0.996
TTGGGACCGA	1.01
TTGGGAGCG	0.996
TTGGGAGTGG	0.995
TTGGGATAC	1.08
TTGGGATATA	1.56
TTGGGCACGC	1.07
TTGGGGGGC	1.02
TTGGGTACG	0.966
TTGGGTCAGT	1.03
TTGGGTCGAA	0.981
TTGGGTGAAT	1
TTGGGTGGGC	1.07
TTGGTAAATA	1.03
TTGGTAACTT	0.979
TTGGTAGTC	1.01
TTGGTATCAA	1.01
TTGGTATCTG	0.935
TTGGTCATTA	1.05

Sequence	switch fluorescence ratio
TTGGTCGGCG	0.906
TTGGTGTAA	1.01
TTGGTGTATT	1.01
TTGGTTAGTC	0.986
TTGGTTCAGA	1.03
TTGGTTG	1.04
TTGTAAAGGA	0.975
TTGTAAGCG	0.996
TTGTACCTGC	1.09
TTGTACGGCG	1.05
TTGTCAGCCC	0.945
TTGTCAGCGG	0.978
TTGTCAGTTA	0.997
TTGTCCTAGA	0.974
TTGTCGTCCG	0.985
TTGTGAATGG	0.991
TTGTGACGAC	1.09
TTGTGCCTTC	1.04
TTGTGGAACT	0.985
TTGTGTCGTG	0.948
TTGTGTTGTT	1.02
TTGTTACACT	1.03
TTGTTATTAT	0.974
TTGTTCCAGG	1.28
TTGTTCGGGC	1.05
TTGTTCGTTC	0.981

Sequence	switch fluorescence ratio
TTGTTCTACT	0.971
TTGTTGAGTT	1.02
TTGTTGCAAT	1.15
TTGTTTAGG	0.97
TTGTTTGCTA	1.04
TTGTTTTAGA	0.963
TTTAAAAGCC	1.03
TTTAACAGTC	1.04
TTTAACTGAT	1.01
TTTAACTGGA	0.989
TTTAAGAA	0.987
TTTAAGGAGT	0.951
TTTAAGTACC	1.55
TTTAAGTGCT	0.96
TTTAATAACA	0.973
TTTAATACCG	0.949
TTTAATGACA	1.04
TTTAATGTG	0.991
TTTACACCCA	1.11
TTTACATTGC	1.02
TTTACCAGTC	1.02
TTTACGCAAA	1.22
TTTACGCTCA	1.05
TTTACGGCAA	1.47
TTTACTAGA	0.954
TTTACTCTAA	1.11

Sequence	switch fluorescence ratio
TTTACTTTTA	1.01
TTTAGATGGC	0.939
TTTAGCAAAT	1.16
TTTAGCGTC	1.02
TTTAGCGTTC	0.982
TTTAGCTTG	1
TTTAGGAATA	1.06
TTTAGGACTA	1.02
TTTAGTACCA	1
TTTAGTCTA	1.01
TTTAGTTAGG	1.03
TTTATAAAG	1.22
TTTATACGAT	0.984
TTTATATAAC	1.04
TTTATATACT	1.03
TTTATCAAGT	0.945
TTTATCCGCT	1.42
TTTATGGACC	1.01
TTTATGGCAA	1.34
TTTATTGTAT	0.961
TTTCAAATGA	1.16
TTTCAAGGTG	1.33
TTTCACGCAT	3.63
TTTCAGGATT	0.981
TTTCAGGCAA	1.24
TTTCATCAGC	1.06

Sequence	switch fluorescence ratio
TTTCCAGCGC	0.972
TTTCCATGAT	1.09
TTTCCGCAGC	4.62
TTTCCGTAGG	0.976
TTTCCTGAAT	1.01
TTTCGGGCCG	0.953
TTTCGGTATC	0.969
TTTCGGTCCA	1.03
TTTCGTACAC	1.06
TTTCGTCCAT	1.28
TTTCGTGC	0.951
TTTCTACGC	1.12
TTTCTACTTA	1.08
TTTCTATTAA	0.955
TTTCTATTGT	0.992
TTTCTCACTT	1.04
TTTCTCCCCG	1.75
TTTCTGAAAT	1.08
TTTCTGATCG	1.38
